The results in this text go back to the supplement of paper PMC4723716.

Whole data set: some 3,600 compounds, median “viability index relative to DMSO control” near 0.81, cut for the lowest 2% near 0.13. This is one part of the list.
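Further: 384-well serum-free SaLSSA: MitoTracker Red CMXRos staining with saponin lysis, high-content imaging, treated-well particle count divided by plate-mean count of DMSO wells.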

In the assay the test system is Plasmodium falciparum NF54 stage V gametocytes. In words: viability index relative to DMSO control (fraction); higher = less gametocyte killing. The conditions noted are these: 1.25 µM, incubation time: 72 h.
Regarding `Cc1ccc2nc(Cl)c3cc(C(=O)Nc4ccc(CN5CCC(C)CC5)cc4)sc3c2c1`, the viability index is 0.795. In turn, `Clc1ccc2c(c1)CN(C1CCCCC1)CO2` gave a viability index of 0.988. For the compound `COC(=O)c1ccc(NC(=O)CSc2nc3cc4c(cc3cc2C#N)OCCO4)cc1`, the viability index turned out to be 0.753. The figure for `Cn1nc(C(F)(F)F)c(-c2ccc(Br)cc2)c1NC(=O)Nc1ccc(F)cc1F` is 0.772; for `CCC(=O)N(C)CCCNc1ccnc2cc(Cl)ccc12` it is 0.69; for `CCOC(=O)c1ccc(-n2c(C)cc(C=C3SC(=Nc4ccc(Cl)cc4)NC3=O)c2C)cc1` it is 0.88.

With `OC(CNCC1CCCO1)Cn1c2ccc(Br)cc2c2cc(Br)ccc21` (stereo not drawn), the viability index is 0.409. The figure for `Fc1ccc(Nc2nc(OC(C(F)(F)F)C(F)(F)F)nc(OC(C(F)(F)F)C(F)(F)F)n2)cc1` is 0.776; for `CCOc1cc(C2CC(=O)NC3=C2C(=O)CC(c2ccc(OC)cc2)C3)cc(Cl)c1O` (stereo not drawn) it is 1; for `CC(=O)Nc1ccc(NC2=C(N3CCCCC3)C(=O)c3ccccc3C2=O)cc1` it is 0.355. The figure for `CCOC(=O)C1=C(C)NC2=C(C(=O)CC(C)(C)C2)C1c1cc(I)sc1SC` (stereo not drawn) is 1.04; for `Cc1ccc(-c2nnc(Nc3ccc(F)cc3)c3ccccc23)cc1S(=O)(=O)NCC1CCCO1` (stereo not drawn) it is 1.01. The figure for `CCc1ccc(C(Nc2cc(C)ccn2)c2ccc3cccnc3c2O)cc1` (stereo not drawn) is 0.741; for `O=C1c2cccc(N3CCN(Cc4cccn4-c4nccs4)CC3)c2C(=O)N1Cc1ccc(Cl)cc1` it is 1.06; for `O=C1CSC(=S)N1c1cccc(Cl)c1` it is 0.88. Regarding `COc1ccc(C2CC(=O)C3=C(C2)NC(C)=C(C(=O)OC2CCCCC2)C3c2ccc([N+](=O)[O-])cc2)cc1OC` (stereo not drawn), the viability index is 0.761. The figure for `OC1=C2C(=Nc3ccccc3SC2c2ccco2)c2ccccc21` (stereo not drawn) is 0.584; for `CCCCN(CCCC)CCCNc1ncnc2c1[nH]c1ccc(Cl)cc12` it is 0.919; for `Cc1ccc(C=NNC(=O)c2nnn(-c3nonc3N)c2-c2ccc([N+](=O)[O-])cc2)cc1` it is 0.623. Compound `CCCOC(=O)C1=C(C)NC2=C(C(=O)CC(c3ccc(OC)c(OC)c3)C2)C1c1ccccc1F` (stereo not drawn) displayed a viability index of 0.564. Turning to `CC(=O)N(C)C1=C(N2CCCCCC2)C(=O)c2ccccc2C1=O`, the viability index turned out to be 0.39. `Cc1ccc(CN2CCC(O)(c3ccc4oc(C(=O)NCCc5cccc(F)c5)cc4c3)CC2)cc1` gave a viability index of 1.25. The figure for `CCOC(=O)C1=C(C)NC2=C(C(=O)CC(c3ccc(OC)cc3)C2)C1c1ccccc1F` (stereo not drawn) is 1.03; for `O=C(Cc1ccccc1)N1CCOc2c(cc(-c3csc4ccccc34)cc2OCCc2ccccn2)C1` it is 0.385. Take `COc1ccc(CNc2cc(-c3ccc(F)c(F)c3)nc3ccnn23)cc1`: the viability index was 1.08.

As for `CC(C)(C)c1ccc(C(=O)C[n+]2cc(-c3ccccc3)n3c2CCC3)cc1`, the viability index amounted to 0.852. The figure for `Cc1cccc(OC(C)C(=O)N2CCc3ccccc32)c1` (stereo not drawn) is 1.13; for `CCOC(=O)C1=C(c2ccccc2)N=c2sc(=Cc3c(C)n(Cc4ccc(F)cc4)c4ccccc34)c(=O)n2C1c1cccc(OC)c1OC` (stereo not drawn) it is 0.822; for `CCCOC(=O)C1=C(C)NC2=C(C(=O)CC(c3ccc(OC)c(OC)c3)C2)C1c1ccc(O)c(OCC)c1` (stereo not drawn) it is 0.821.

The compound `CCOC(=O)c1c(NC(=O)Cc2ccc([N+](=O)[O-])cc2)sc2c1CCCC2` showed a viability index of 1.02. The figure for `CCC(=O)N(C1=C(NC)C(=O)c2ccccc2C1=O)C(C)C` is 0.601. The figure for `C[n+]1ccc(C=Cc2ccccc2F)c2ccccc21` is 0.911; for `COC(=O)C1=C(C)NC2=C(C(=O)CC(c3ccc(OC)c(OC)c3)C2)C1c1ccccc1C` (stereo not drawn) it is 0.653.

`N#C/C(=C\c1cc2ccccc2nc1Cl)c1nc(-c2ccc(Cl)c(Cl)c2)cs1` had a viability index of 1.01.

`CCOC(=O)C1=C(c2ccccc2)N=c2sc(=Cc3cc(C)n(-c4ccc(F)cc4)c3C)c(=O)n2C1c1cccc(OC)c1OC` (stereo not drawn) displayed a viability index of 0.698.

For `CC(C)OC(=O)c1cccnc1SCC(=O)Nc1ccc(C(F)(F)F)cc1Cl`, the viability index was determined as 1.36. `COc1ccccc1NC1=CC(=NS(=O)(=O)c2ccccc2)c2ccccc2C1=O` came in with a viability index of 0.247.

For the compound `Cc1ccc(C)c(S(=O)(=O)N=C2C=C(SCC(=O)O)C(=O)c3ccccc32)c1`, the viability index amounted to 0.861.

For `O=C(CNC(=O)c1ccccc1)Oc1ccc(Cl)cc1`, the viability index is 0.779. The figure for `CCC(Sc1nc2ccccc2n1C(C)=O)C(=O)NC1=NN=C(c2ccc(Br)cc2)CS1` (stereo not drawn) is 0.928; for `CCc1ccc2[nH]c(=O)c(CN(Cc3ccc(OC)cc3)C(=S)NCCCN(CC)CC)cc2c1` it is 0.753. The figure for `C=CCN1C(=O)/C(=C\c2ccccc2)C(C(=O)OC)=C1C` is 0.521; for `CN(C)CCNc1cc(-c2ccc3ccccc3c2)nc2ccccc12` it is 0.0331. Consider `COc1cccc(N2C(N)=NC(N)=NC2(C)C)c1`, for which the viability index was 1.02. The compound `C=C(C)C(=O)OCCc1ccc(O)c(-n2nc3ccccc3n2)c1` registered a viability index of 0.751. The figure for `O=C(c1ccc([N+](=O)[O-])cc1[N+](=O)[O-])N1CCCCC1` is 1.06; for `COc1ccc2nc(C)cc(Nc3ccc(Br)cc3)c2c1` it is 0.978. Compound `O=C(c1cccc(Cl)c1)N1CCN(c2ccc([N+](=O)[O-])c(NC3CC3)c2)CC1` registered a viability index of 0.598. The figure for `CCN(CC)CCCNc1ccnc2cc3ccccc3cc12` is 0.789. As to `COc1ccc(-n2nc(C(C)(C)C)cc2NC(=O)CN(C(=O)c2ccc(C(C)(C)C)cc2)C(C)C)cc1`, the viability index amounted to 0.853. The figure for `CCOC(=O)c1cnc2c(C)cc(C)cc2c1Nc1ccc(C(C)=O)cc1` is 0.693; for `Cc1ccc(Nc2cc(C)nc(NCc3ccccc3)n2)cc1` it is 0.457. The figure for `Cc1cccc(NC(=O)c2ccc(NCCCC3CCCCCC3)c([N+](=O)[O-])c2)c1` is 1.18; for `COc1ccc(C2=C(c3ccc(OC)cc3)C3(c4ccccc4)C(=O)C2(c2ccccc2)C2C(=O)N(c4cc(Cl)ccc4C)C(=O)C23)cc1` (stereo not drawn) it is 0.574. The figure for `CN(C)CCNc1ncnc2c1[nH]c1ccc(Cl)cc12` is 0.874; for `Cc1ccccc1OCC(O)Cn1c(NC2CCCCC2)nc2c1c(=O)[nH]c(=O)n2C` (stereo not drawn) it is 0.932; for `CCc1ccc2[nH]c(=O)c(CN(CCCN(CC)CC)C(=S)NCCCN(C)C)cc2c1` it is 0.875. In turn, `O=C(c1ccc2nc(N3CCCCC3)sc2c1)N1CCN(Cc2ccccc2)CC1` yielded a viability index of 0.614.

As to `S=P(OCC1C(COP(=S)(c2ccccc2)c2ccccc2)C1(Cl)Cl)(c1ccccc1)c1ccccc1` (stereo not drawn), the viability index amounted to 0.562. In turn, `CCOC(=O)C1=C(C)NC2=C(C(=O)C(C(=O)OCC)C(c3cccc(OC)c3)C2)C1c1ccc([N+](=O)[O-])cc1` (stereo not drawn) showed a viability index of 0.332. The figure for `CC(C)(C)c1ccc2[nH]c3c(c2c1)CCCC3=NO` is 0.992; for `CCCNC(=O)c1cc(NC(=O)c2cc(C(F)(F)F)cc(C(F)(F)F)c2)ccc1N1CCCCC1` it is 0.847; for `CCN(CC)c1ccc(N=Cc2ccc(Sc3nc4ccccc4s3)o2)cc1` it is 1.17. The figure for `Oc1ccccc1Nc1nc(NC2CCCC2)c2ccccc2n1` is 0.724. The figure for `Cc1ccc2[nH]c3c(NCCN4CCCCC4)ncnc3c2c1` is 0.587; for `O=[N+]([O-])c1cccc(-c2ccc(C=NNc3nc4ccccc4[nH]3)o2)c1` it is 1.15.

In turn, `O=C1CC(c2ccccc2)CC2=C1C(c1cccc(Cl)c1Cl)Nc1ccccc1N2` (stereo not drawn) had a viability index of 0.842. In turn, `CCNC(=O)NCCSc1nc(-c2ccccc2)c(-c2ccccc2)n1CC` registered a viability index of 0.899. The figure for `CN(C)CCCNc1ncnc2c1[nH]c1ccc(Br)cc12` is 0.682. The figure for `Nc1nonc1-n1nnc(C(=O)NN=Cc2ccc(F)c(Br)c2)c1-c1ccc([N+](=O)[O-])cc1` is 0.95. Take `CC(C)CNCc1cc(-c2ccc(F)cc2)ccc1O`: the viability index worked out at 0.519. The figure for `CCC(C)NC(=O)CSc1nnc(-c2cccnc2)n1-c1ccc(Cl)cc1` (stereo not drawn) is 0.71; for `CCCCCCCn1c(=N)n(CC(O)c2ccc(Cl)c(Cl)c2)c2ccccc21` (stereo not drawn) it is 0.358; for `Cc1cc(Nc2cccc(F)c2)nc(NCc2ccccc2)n1` it is 0.68. `CCc1ccccc1N1C(=O)CN(Cc2ccccc2)C1=S` showed a viability index of 1.24. The figure for `Cc1nc(C23CC4CC(CC(C4)C2)C3)cs1` is 0.871; for `COc1ccc(-c2cc(C(F)(F)F)n3ncc(C(=O)Nc4cc(C)ccc4O)c3n2)cc1OC` it is 0.706.

In turn, `COc1ccc(OC)c(-c2ccc(O)c(CN3CCC(c4ccccc4)CC3)c2)c1` came in with a viability index of 0.587. The figure for `CC(=O)Nc1nc(-c2ccc(F)cc2)cs1` is 1.07; for `CCOC(=O)c1ccc(NC(=O)c2cc(-c3ccccc3)nc3ccc(C)cc23)cc1` it is 0.804; for `CCOc1ccc2c(c1)sc(=NC(=O)Nc1ccc(OC)cc1)n2C` it is 0.76. The figure for `O=C(C1Cc2ccccc2CN1S(=O)(=O)c1ccc(F)cc1)N1CCOCC1` (stereo not drawn) is 1.2. The figure for `Cc1cccc(N(C)c2nc3ccccc3c3nnc(C)n23)c1` is 0.859; for `CC[n+]1c(C=C2C=CN(C)C=C2)ccc2cc(C)ccc21` it is 0.743; for `O=C(Nc1cccnc1)c1cc(-c2cccnc2)nc2ccc(Br)cc12` it is 0.841. With `CCCCCCCSc1nsc(NC(=O)CCC)n1`, the viability index was determined as 0.885. On to `Cc1cc(Nc2ccc([N+](=O)[O-])cc2O)nc2ccccc12`, for which the viability index turned out to be 0.751.

Consider `CC1=NOC(=O)C1=Cc1ccc(-c2ccc([N+](=O)[O-])cc2)o1`, for which the viability index was found to be 0.628.
